The record followed here is the RNAGym collection of RNA variant scans (doi:10.7554/elife.90254).

Read counts are not given, so values of variants with three or more changes are uncertain.

B1: OR4K15 (parent)
chain: GUUAACGGUCAUAGGCCAUGGAAACUAGGAGCACCAUUUCGCUGCCAGUGAAGAAAUGAACAAAGAAAAUCUGGGCCAGGCAGGCAUCAAAAGAAAUAGUCUUGCGCUCAACCAGAAAGUCUGUAAUCAUUUUAAGGGUA

In the data set the parent is B1. Nature of the data set: self-cleavage, relative activity (ratio to wild type); higher = more cleavage; in vitro, sequencing; the parent is a self-cleaving ribozyme.
For A4C U103C A126C, the self-cleavage came out at 0.58.

As to A4G U57A C76A, the self-cleavage amounted to 0.31.

Regarding A4U A82G A134G, the self-cleavage was determined as 1.6.

In the case of A4G A5G U49C A52G, the self-cleavage was found to be 0.92.

As for U3C A27G A116U, the self-cleavage was found to be 0.17.

Consider U3A U19C A117G, for which the self-cleavage was determined as 1.08.

Regarding U3C A23U A68G, the self-cleavage was 1.05.

For U3C G29A U57A A89G A96U, the self-cleavage worked out at 0.84.

With U2C U37C U43C A51G U72A, the self-cleavage came to 0.22.

Consider A4G U19C A135U, for which the self-cleavage amounted to 0.82.

On to A4G U130C U139C, for which the self-cleavage was found to be 0.63.

For U3G A13G A22U A55G, the self-cleavage was found to be 1.

Regarding U3C G44A A96G U108C A114G, the self-cleavage came to 0.01.

Consider U3C A4G A91G U139C, for which the self-cleavage is 0.68.

As for A4G A68G A125G, the self-cleavage amounted to 0.47.

Regarding U2C U87C U132C, the self-cleavage was determined as 1.31.

As for U2C G58A A96G U108C A118G, the self-cleavage came to 0.01.

Regarding U3C A13G A125U U133C U139G, the self-cleavage came to 0.28.

Take U3C A51G A62G: the self-cleavage was 0.5.

As for U2C U9C A13U, the self-cleavage is 1.71.

Turning to U3C U9A C76U A98G, the self-cleavage amounted to 0.08.

For U3A U72A G99A, the self-cleavage came to 0.1.

Turning to U3A A47G U49A A64G A82G, the self-cleavage is 0.62.

In the case of U3A C35U A91G A92U, the self-cleavage is 0.83.

For A4G A56G G74C U120G, the self-cleavage is 0.29.

For the variant U3C U9A A67G G75C U103C, the self-cleavage stood at 0.02.

As for U3A A4U C35U A135G, the self-cleavage worked out at 0.17.

As to U3C A5U U38C A69U A95G, the self-cleavage was found to be 1.91.

For U2C C76A A90G U132A, the self-cleavage was determined as 0.21.

For the variant A4G A22G A82C A110G, the self-cleavage came out at 0.14.

With A4G A11G A22U A30U U124C, the self-cleavage is 0.85.

As for U3A A63G A110G, the self-cleavage is 0.2.

As to U2G A5G A23G, the self-cleavage was 0.96.

Consider A4U A24G A90G A96G, for which the self-cleavage was determined as 1.44.

For U3C A89G U108C, the self-cleavage came to 0.

On to U2C U39C A62G A66G U132G, for which the self-cleavage amounted to 1.64.

In the case of A4G A5U U37A A47U A90G, the self-cleavage was determined as 0.83.

In the case of U3A A5G A54G U70C, the self-cleavage is 0.85.

Regarding A4G A54G A63G A69U, the self-cleavage was 1.7.

Take A4G U9C U38C U39A A89U: the self-cleavage came to 1.75.

For A4G G75C U103C U133C, the self-cleavage is 0.07.

Regarding U3C A52U U100A, the self-cleavage came to 0.86.

Turning to A4G A24C A30G A116U A117G, the self-cleavage came to 0.53.

As for A4C A11G A30G U39C U57C, the self-cleavage amounted to 1.13.

Regarding U3C A47G A55G U131C G137A, the self-cleavage stood at 0.75.

Turning to U2C U38C A62U A68G, the self-cleavage worked out at 0.56.

On to A4G A5G A51G A52U U131C, for which the self-cleavage was 1.17.

Take U2C C6U A110G U120C A126G: the self-cleavage was 0.02.

Regarding A4G A5U U37C A54G A86U, the self-cleavage is 0.9.

U2C C76U A95G A135G: the self-cleavage was 0.01.

In the case of U2C G74A U100C U132C, the self-cleavage was found to be 0.27.

As for A4G G83U G106C A129G U133C, the self-cleavage was 0.04.

As to U2C C6A U39A A52U C85U U100A, the self-cleavage was found to be 0.53.

As for A4G A59G A69G A95G A114U, the self-cleavage stood at 0.15.

In the case of A4U A60G U103C, the self-cleavage came out at 0.62.

In the case of A4G A52G A56G A82G U102C, the self-cleavage was determined as 0.64.

With U2C U19A A67U U100C, the self-cleavage was 1.23.

A4G G14A A55G A91G A114G A135G: the self-cleavage is 0.16.

In the case of U2C U9C A59U, the self-cleavage stood at 1.6.

In the case of A4G A33G A56G A67G U87C, the self-cleavage was determined as 0.42.

Take A4U A27G A55G A56G A78U: the self-cleavage amounted to 0.59.

As for U3A A30U A63G A82G A117U U131C, the self-cleavage was 0.07.

With U2G G14A U19A A27G U57C, the self-cleavage amounted to 0.57.

Turning to A5C A11G A30G U37C U87C U131C, the self-cleavage turned out to be 1.96.

In the case of U3A A51G A66G A95G, the self-cleavage is 1.21.

Regarding U3C U39A A116U U120C C121A, the self-cleavage came to 0.4.

For U3C A94U A114G, the self-cleavage was found to be 0.78.

As to U2C U37C U87C A90U A114G, the self-cleavage came out at 0.29.

Turning to U2G U26C A60G G74U, the self-cleavage came to 0.

In the case of U3A A11G U19C A64G, the self-cleavage amounted to 1.05.

Take A4G G7A A92G U108C: the self-cleavage is 0.04.

As for U2G A5G A51G U131G, the self-cleavage amounted to 0.81.

Regarding A4G U49C U108A A111G, the self-cleavage was found to be 0.01.

Take U2C G31A A60G: the self-cleavage came to 0.59.

Consider U3A A13U A62G A114G, for which the self-cleavage worked out at 0.24.

Consider U3G A51G U127A, for which the self-cleavage worked out at 1.76.

For A4G U9C U19A A51G A68G A86C U133G, the self-cleavage was found to be 0.56.

Take U3A A5G A33U A51G: the self-cleavage worked out at 0.52.

For A4G U38G A60U A64G A68G U102C, the self-cleavage came to 1.16.

As for A4G A23G A78C, the self-cleavage amounted to 0.5.

U2C U37C A68G A117G U130C G137U: the self-cleavage was 1.33.

In the case of U2C U9C A52G A98U, the self-cleavage is 0.89.

For U3C A11C C42U U127C, the self-cleavage came to 1.71.

U2C G7U A51G A56C A92G: the self-cleavage turned out to be 0.59.
